# Reference: the supplement of paper PMC5499739
# Whole data set: some 16,000 sequences, median “Z-score” near -0.37, cut for the highest 2% near 3.2. Some of the results follow.
# Tested on: RBM10 RRM1-ZnF (GST-tagged construct)
# Experiment: RNAcompete 7-mer binding Z-score; higher = stronger binding preference
# Protocol: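 RNAcompete: 20 pmol GST-tagged RBM10 RNA-binding constructs were incubated with a designed RNA pool of about 241,000 sequences up to 41 nt (1.5 nmol) on glutathione beads for 30 min at 4 °C and washed. Bound RNAs were identified by microarray hybridisation. Each RNA 7-mer is scored by a one-sided Z-score of its enrichment, computed over probes that contain the 7-mer within longer pool sequences.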
row,Sequence,RNAcompete 7-mer binding Z-score
1,UGGCGUA,0.316
2,CUAUCGG,-0.5
3,CAUCCGA,-0.698
4,CGAAUGU,-0.21
5,UAUGAAC,-0.327
6,GAGUCUG,-0.295
7,GUUCUGC,-0.581
8,UACCGUC,-0.756
9,AAUCUAG,-0.386
10,CUGUCCA,-0.698
11,UGGCGGA,1.83
12,GUUCCUA,-0.691
13,ACAUGUU,-0.503
14,GGUUACA,1.26
15,AGUUUAC,-0.659
16,CAUGUAG,0.00404
17,AUCAUCG,-0.467
18,ACCCUCA,-0.626
19,UUCAACC,-0.834
20,CAUCAAU,-0.668
21,UAGGCAC,0.147
22,CGACCGU,-0.646
23,GUCGCCG,-0.298

row,Sequence,RNAcompete 7-mer binding Z-score
1,AGUUGCA,0.0723
2,UUGGGAC,1.58
3,GGCUUCC,-0.451
4,CUGGCAU,-0.461
5,GGGUCAC,1.52
6,GCCCGGU,-0.37
7,UCUGAGU,-0.568
8,CAUCAGC,-0.753
9,GAUUUGU,-0.178
10,CCAAUGC,-0.668
11,AGUCGGC,-0.0772
12,AGAGACC,-0.636
13,CGGAUCU,-0.37
14,GCGUAGC,-0.0155
15,CUUGUCA,-0.802
16,UCAAAUA,-0.626
17,CUGAAAU,-0.561
18,CGAUGAG,0.699
19,AACCUAA,-0.818
20,ACACCGA,-0.532
21,UCCCUGC,-0.539
22,GCGGCAG,0.829
23,UUGUCUA,-0.717

row,Sequence,RNAcompete 7-mer binding Z-score
1,GUACCCC,-0.204
2,UGAUGUC,-0.587
3,AGCGAUA,0.108
4,GGCCUUG,-0.35
5,UUGCUUU,-0.717
6,UGCAUAC,-0.36
7,UUUUCAU,-0.727
8,AGCUGUU,-0.737
9,UCCUCCC,-0.415
10,GUGGAGA,2.78
11,AAGUUGU,-0.0642
12,UUCAACA,-0.555
13,GAUAACC,-0.597
14,AUUGGGG,3.01
15,AGGUCAC,-0.155
16,UUCUUUU,-0.675
17,CAAAGUC,-0.493
18,UGACACU,-0.49
19,CGUUUGC,-0.545
20,UGCACUA,-0.503
21,GGGACUA,1.55
22,CCGCUUU,-0.951
23,UGGACCU,-0.0285

row,Sequence,RNAcompete 7-mer binding Z-score
1,GCGAACG,0.738
2,CCUUCAA,-0.847
3,CGCGCGG,0.849
4,UUAGCGC,-0.535
5,AUCUUUA,-0.86
6,UACGUAC,-0.389
7,CUCCCGC,-0.519
8,CGACGGA,1.01
9,GGCCUAA,-0.0739
10,GACCUUC,-0.954
11,UACGUCG,-0.314
12,AUCUUAG,-0.487
13,CAUCCUA,-0.818
14,AAUUUAC,-0.769
15,GCGUUAG,0.069
16,UAGCUCG,-0.321
17,GUGGUAA,2.03
18,AGGAUAC,0.878
19,GGUGUUG,2.26
20,GCACGCU,-0.522
21,GAGGGGG,2.9
22,CCACGCG,-0.431
23,GGGUUGA,3.8

row,Sequence,RNAcompete 7-mer binding Z-score
1,UAUCCCG,-0.792
2,UACGACA,-0.405
3,AUCCGGG,0.472
4,GCCCCGG,0.426
5,CUAUGCC,-0.798
6,UGUGGUG,1.84
7,UAAUGCA,-0.386
8,ACCUAGG,0.0885
9,CCGUACA,-0.642
10,CUCGAUC,-0.691
11,ACUAAAU,-0.522
12,UACUGGA,0.251
13,AGCCACA,-0.668
14,AAUUCGA,-0.584
15,AAAAGCG,0.378
16,GUACUGU,-0.0804
17,CCUCGCG,-0.483
18,GCAUUAC,-0.431
19,GGUGCUC,0.605
20,AGGGAGU,2.96
21,GGUGCGU,1.41
22,GCAUAUA,-0.178
23,ACCUUAG,-0.642

row,Sequence,RNAcompete 7-mer binding Z-score
1,GUGCAGA,0.482
2,UUCUAAA,-0.776
3,GUUUUGA,-0.214
4,GCCACUC,-0.73
5,UCGUGGC,-0.00896
6,GUGUAUU,0.0528
7,AUGGUCA,0.975
8,CACCGCG,0.069
9,CGACAUA,-0.506
10,UGAGAGG,1.94
11,AAGAUGG,2.94
12,AUCUUUG,-0.759
13,CUCCGAU,-0.74
14,ACCACGU,-0.366
15,AUAUAAA,-0.444
16,AGCAAAA,-0.175
17,UUGUACC,-0.62
18,CUCGCCA,-0.5
19,CAAUUAC,-0.75
20,GGGAGCA,2.14
21,GUUUUAA,-0.47
22,GUGCUGU,-0.0707
23,GGUUUCG,1.04

row,Sequence,RNAcompete 7-mer binding Z-score
1,UUCGACA,-0.665
2,CCCCCGU,-0.0155
3,GGUCGUA,0.241
4,AACGAAG,-0.194
5,CUAUCCA,-0.886
6,CUUAAUG,-0.451
7,GUACCCG,-0.444
8,UUCGGCU,-0.535
9,CUCUACU,-0.711
10,CCAUUGG,-0.558
11,ACCGUAG,-0.357
12,ACUACUA,-0.402
13,UGCAAAC,-0.337
14,GUUGCGU,0.257
15,GUCUGAG,-0.21
16,GUUGUCC,-0.272
17,GUCUCAU,-0.642
18,UAUACUA,-0.574
19,GACGUUU,-0.591
20,AUUAGAG,0.283
21,GAGAGCA,0.547
22,UAUUUCU,-0.746
23,AUUCCCU,-0.756

row,Sequence,RNAcompete 7-mer binding Z-score
1,UCACAGU,-0.448
2,GAUACUA,-0.175
3,UGACAGU,-0.207
4,AUUGCUA,-0.483
5,CAGCUGG,0.309
6,UAUCAGG,0.29
7,GAGCGAG,3.42
8,CAGGAUG,1.75
9,CGGCGUA,-0.0414
10,UGUGCCG,-0.227
11,GCUCUCU,-0.74
12,GUGCCUU,-0.597
13,CGAUCUU,-0.795
14,UAAAGUA,-0.249
15,CAGGCGU,0.433
16,UGUGCAA,-0.00896
17,AUAGAUU,-0.327
18,AUGUGCU,-0.21
19,CACCUCA,-0.542
20,UAUCUUC,-0.688
21,GCCCCAC,-0.441
22,UAGUAAC,-0.415
23,ACCUGUG,-0.539
